# Experimental data taken from paper PMC12554184.
# Amino acid sequences for entries named in this document (tags omitted).
# UniProt P03148: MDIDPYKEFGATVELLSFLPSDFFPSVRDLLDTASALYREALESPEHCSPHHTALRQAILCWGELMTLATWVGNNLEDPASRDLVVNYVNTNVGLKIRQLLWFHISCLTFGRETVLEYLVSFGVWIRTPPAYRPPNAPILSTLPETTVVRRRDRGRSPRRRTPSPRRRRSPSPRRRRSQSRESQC
# UniProt P08962: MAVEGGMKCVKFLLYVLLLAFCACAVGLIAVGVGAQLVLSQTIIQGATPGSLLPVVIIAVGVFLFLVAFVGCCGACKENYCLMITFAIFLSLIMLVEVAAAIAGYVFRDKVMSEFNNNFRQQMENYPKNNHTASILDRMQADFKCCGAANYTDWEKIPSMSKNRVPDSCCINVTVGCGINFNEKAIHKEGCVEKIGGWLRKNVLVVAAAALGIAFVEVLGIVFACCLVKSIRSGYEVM
# UniProt P03146: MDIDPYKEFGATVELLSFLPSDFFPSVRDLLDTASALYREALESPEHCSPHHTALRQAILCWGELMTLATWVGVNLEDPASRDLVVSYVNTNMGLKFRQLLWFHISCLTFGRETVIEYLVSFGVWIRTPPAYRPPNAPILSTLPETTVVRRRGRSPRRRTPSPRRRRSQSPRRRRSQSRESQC
# UniProt O14964: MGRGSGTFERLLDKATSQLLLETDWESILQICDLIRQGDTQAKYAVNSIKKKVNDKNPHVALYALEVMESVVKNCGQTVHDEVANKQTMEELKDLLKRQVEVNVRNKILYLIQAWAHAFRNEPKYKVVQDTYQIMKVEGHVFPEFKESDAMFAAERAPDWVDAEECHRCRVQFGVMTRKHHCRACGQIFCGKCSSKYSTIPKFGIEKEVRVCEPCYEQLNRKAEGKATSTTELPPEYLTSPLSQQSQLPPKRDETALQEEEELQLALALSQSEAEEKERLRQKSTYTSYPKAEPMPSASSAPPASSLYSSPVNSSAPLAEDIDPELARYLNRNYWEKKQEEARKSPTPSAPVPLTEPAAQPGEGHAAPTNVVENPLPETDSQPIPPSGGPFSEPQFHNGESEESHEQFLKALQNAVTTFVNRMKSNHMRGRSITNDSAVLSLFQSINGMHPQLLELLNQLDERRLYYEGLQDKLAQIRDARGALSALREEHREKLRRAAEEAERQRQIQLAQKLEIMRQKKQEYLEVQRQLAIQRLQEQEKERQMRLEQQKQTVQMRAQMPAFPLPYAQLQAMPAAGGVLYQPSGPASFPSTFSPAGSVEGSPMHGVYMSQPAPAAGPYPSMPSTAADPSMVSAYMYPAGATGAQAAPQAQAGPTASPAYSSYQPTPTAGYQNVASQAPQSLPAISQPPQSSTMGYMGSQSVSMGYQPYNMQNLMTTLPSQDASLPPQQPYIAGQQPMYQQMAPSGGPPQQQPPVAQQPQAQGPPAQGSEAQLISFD
# Results are given in words; binding and its absence hold for the method and conditions named. In cells and extracts the contact can be indirect. Some entries that bind do so weakly or less than the wild type. For some assays here: Sequences can lack the tags named with a protein.
# T1: endogenous ubiquitin-conjugating enzyme E2 O (UBE2O) (human (endogenous in HepG2-NTCP)) (UniProt Q9C0C9)
# T1 sequence: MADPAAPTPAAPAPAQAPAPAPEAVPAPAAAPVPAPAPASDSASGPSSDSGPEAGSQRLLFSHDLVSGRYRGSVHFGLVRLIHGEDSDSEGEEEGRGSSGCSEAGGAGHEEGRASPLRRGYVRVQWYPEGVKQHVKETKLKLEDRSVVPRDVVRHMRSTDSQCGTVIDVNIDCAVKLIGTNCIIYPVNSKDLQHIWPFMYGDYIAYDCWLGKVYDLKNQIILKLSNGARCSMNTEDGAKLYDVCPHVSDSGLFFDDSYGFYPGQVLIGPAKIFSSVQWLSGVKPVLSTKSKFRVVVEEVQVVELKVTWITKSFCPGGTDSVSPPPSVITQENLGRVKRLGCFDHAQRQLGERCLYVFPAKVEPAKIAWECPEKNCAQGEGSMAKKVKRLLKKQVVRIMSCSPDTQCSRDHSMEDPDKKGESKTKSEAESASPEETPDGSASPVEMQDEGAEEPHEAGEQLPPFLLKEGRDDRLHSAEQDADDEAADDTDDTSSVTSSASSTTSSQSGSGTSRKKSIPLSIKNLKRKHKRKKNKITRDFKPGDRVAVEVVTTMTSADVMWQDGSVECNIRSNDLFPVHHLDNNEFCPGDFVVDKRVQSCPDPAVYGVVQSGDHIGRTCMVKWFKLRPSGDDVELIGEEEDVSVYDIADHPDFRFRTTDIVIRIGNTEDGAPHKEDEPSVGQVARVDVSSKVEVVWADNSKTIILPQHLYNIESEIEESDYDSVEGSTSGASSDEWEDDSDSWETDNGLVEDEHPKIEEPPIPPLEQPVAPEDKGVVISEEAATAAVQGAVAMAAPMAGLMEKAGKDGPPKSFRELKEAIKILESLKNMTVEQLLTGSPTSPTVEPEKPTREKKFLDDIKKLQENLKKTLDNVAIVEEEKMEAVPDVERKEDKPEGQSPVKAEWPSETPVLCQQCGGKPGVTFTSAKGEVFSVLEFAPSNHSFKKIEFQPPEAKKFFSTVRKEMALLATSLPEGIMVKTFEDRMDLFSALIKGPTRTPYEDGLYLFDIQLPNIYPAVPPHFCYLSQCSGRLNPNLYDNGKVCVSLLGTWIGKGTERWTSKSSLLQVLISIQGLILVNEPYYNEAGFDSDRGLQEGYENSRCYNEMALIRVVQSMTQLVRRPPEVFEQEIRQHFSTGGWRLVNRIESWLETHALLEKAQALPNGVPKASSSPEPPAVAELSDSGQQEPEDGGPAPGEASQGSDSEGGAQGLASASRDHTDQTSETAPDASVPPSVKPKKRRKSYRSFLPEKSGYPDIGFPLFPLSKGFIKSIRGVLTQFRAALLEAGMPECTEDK
# B1: endogenous ubiquitin-conjugating enzyme E2 O (UBE2O) (enzyme, UniProt Q9C0C9 1-1292)
# chain: MADPAAPTPAAPAPAQAPAPAPEAVPAPAAAPVPAPAPASDSASGPSSDSGPEAGSQRLLFSHDLVSGRYRGSVHFGLVRLIHGEDSDSEGEEEGRGSSGCSEAGGAGHEEGRASPLRRGYVRVQWYPEGVKQHVKETKLKLEDRSVVPRDVVRHMRSTDSQCGTVIDVNIDCAVKLIGTNCIIYPVNSKDLQHIWPFMYGDYIAYDCWLGKVYDLKNQIILKLSNGARCSMNTEDGAKLYDVCPHVSDSGLFFDDSYGFYPGQVLIGPAKIFSSVQWLSGVKPVLSTKSKFRVVVEEVQVVELKVTWITKSFCPGGTDSVSPPPSVITQENLGRVKRLGCFDHAQRQLGERCLYVFPAKVEPAKIAWECPEKNCAQGEGSMAKKVKRLLKKQVVRIMSCSPDTQCSRDHSMEDPDKKGESKTKSEAESASPEETPDGSASPVEMQDEGAEEPHEAGEQLPPFLLKEGRDDRLHSAEQDADDEAADDTDDTSSVTSSASSTTSSQSGSGTSRKKSIPLSIKNLKRKHKRKKNKITRDFKPGDRVAVEVVTTMTSADVMWQDGSVECNIRSNDLFPVHHLDNNEFCPGDFVVDKRVQSCPDPAVYGVVQSGDHIGRTCMVKWFKLRPSGDDVELIGEEEDVSVYDIADHPDFRFRTTDIVIRIGNTEDGAPHKEDEPSVGQVARVDVSSKVEVVWADNSKTIILPQHLYNIESEIEESDYDSVEGSTSGASSDEWEDDSDSWETDNGLVEDEHPKIEEPPIPPLEQPVAPEDKGVVISEEAATAAVQGAVAMAAPMAGLMEKAGKDGPPKSFRELKEAIKILESLKNMTVEQLLTGSPTSPTVEPEKPTREKKFLDDIKKLQENLKKTLDNVAIVEEEKMEAVPDVERKEDKPEGQSPVKAEWPSETPVLCQQCGGKPGVTFTSAKGEVFSVLEFAPSNHSFKKIEFQPPEAKKFFSTVRKEMALLATSLPEGIMVKTFEDRMDLFSALIKGPTRTPYEDGLYLFDIQLPNIYPAVPPHFCYLSQCSGRLNPNLYDNGKVCVSLLGTWIGKGTERWTSKSSLLQVLISIQGLILVNEPYYNEAGFDSDRGLQEGYENSRCYNEMALIRVVQSMTQLVRRPPEVFEQEIRQHFSTGGWRLVNRIESWLETHALLEKAQALPNGVPKASSSPEPPAVAELSDSGQQEPEDGGPAPGEASQGSDSEGGAQGLASASRDHTDQTSETAPDASVPPSVKPKKRRKSYRSFLPEKSGYPDIGFPLFPLSKGFIKSIRGVLTQFRAALLEAGMPECTEDK
# B2: Flag-Myc-tagged wild-type UBE2O (enzyme, UniProt Q9C0C9 1-1292)
# chain: MADPAAPTPAAPAPAQAPAPAPEAVPAPAAAPVPAPAPASDSASGPSSDSGPEAGSQRLLFSHDLVSGRYRGSVHFGLVRLIHGEDSDSEGEEEGRGSSGCSEAGGAGHEEGRASPLRRGYVRVQWYPEGVKQHVKETKLKLEDRSVVPRDVVRHMRSTDSQCGTVIDVNIDCAVKLIGTNCIIYPVNSKDLQHIWPFMYGDYIAYDCWLGKVYDLKNQIILKLSNGARCSMNTEDGAKLYDVCPHVSDSGLFFDDSYGFYPGQVLIGPAKIFSSVQWLSGVKPVLSTKSKFRVVVEEVQVVELKVTWITKSFCPGGTDSVSPPPSVITQENLGRVKRLGCFDHAQRQLGERCLYVFPAKVEPAKIAWECPEKNCAQGEGSMAKKVKRLLKKQVVRIMSCSPDTQCSRDHSMEDPDKKGESKTKSEAESASPEETPDGSASPVEMQDEGAEEPHEAGEQLPPFLLKEGRDDRLHSAEQDADDEAADDTDDTSSVTSSASSTTSSQSGSGTSRKKSIPLSIKNLKRKHKRKKNKITRDFKPGDRVAVEVVTTMTSADVMWQDGSVECNIRSNDLFPVHHLDNNEFCPGDFVVDKRVQSCPDPAVYGVVQSGDHIGRTCMVKWFKLRPSGDDVELIGEEEDVSVYDIADHPDFRFRTTDIVIRIGNTEDGAPHKEDEPSVGQVARVDVSSKVEVVWADNSKTIILPQHLYNIESEIEESDYDSVEGSTSGASSDEWEDDSDSWETDNGLVEDEHPKIEEPPIPPLEQPVAPEDKGVVISEEAATAAVQGAVAMAAPMAGLMEKAGKDGPPKSFRELKEAIKILESLKNMTVEQLLTGSPTSPTVEPEKPTREKKFLDDIKKLQENLKKTLDNVAIVEEEKMEAVPDVERKEDKPEGQSPVKAEWPSETPVLCQQCGGKPGVTFTSAKGEVFSVLEFAPSNHSFKKIEFQPPEAKKFFSTVRKEMALLATSLPEGIMVKTFEDRMDLFSALIKGPTRTPYEDGLYLFDIQLPNIYPAVPPHFCYLSQCSGRLNPNLYDNGKVCVSLLGTWIGKGTERWTSKSSLLQVLISIQGLILVNEPYYNEAGFDSDRGLQEGYENSRCYNEMALIRVVQSMTQLVRRPPEVFEQEIRQHFSTGGWRLVNRIESWLETHALLEKAQALPNGVPKASSSPEPPAVAELSDSGQQEPEDGGPAPGEASQGSDSEGGAQGLASASRDHTDQTSETAPDASVPPSVKPKKRRKSYRSFLPEKSGYPDIGFPLFPLSKGFIKSIRGVLTQFRAALLEAGMPECTEDK
# How the values were obtained:
# [1] = biological target: T1, endogenous ubiquitin-conjugating enzyme E2 O (UBE2O) (human (endogenous in HepG2-NTCP)); test: co-IP; HBV-infected HepG2-NTCP cells, lysates 6 days post-infection; IP with anti-UBE2O (isotype control antibody beside it), Western blot anti-HBc and anti-UBE2O; both proteins at their level in infected cells
# [2] = biological target: wild-type HBV core protein (wt-HBc), 1-185 aa, HBV genotype A, subtype adw2 (hepatitis B virus (genotype A, subtype adw2)) (UniProt P03148); test: co-IP; HepG2-NTCP cells transfected with wt-HBc, Flag-HGS or Flag-SNF8/EAP30, with or without Flag-Myc-wt-UBE2O; IP with anti-capsid antibodies, Western blot anti-Flag
# [3] = biological target: wild-type HBV core protein (wt-HBc), 1-185 aa, HBV genotype A, subtype adw2 (hepatitis B virus (genotype A, subtype adw2)) (UniProt P03148); test: co-IP; HepG2-NTCP cells co-transfected with UBE2O-wt or UBE2O-CD and HBc (WT) or Ub-fused HBc; cytoplasmic protein extracts; IP anti-Flag or anti-HBc, Western blot anti-HBc or anti-Flag
# [4] = biological target: CD63 (endogenous) (human (endogenous in HepG2-NTCP)) (UniProt P08962); test: proximity ligation; Duolink PLA for UBE2O and CD63 in HBV-infected HepG2-NTCP cells, 6 days post-infection; mouse isotype antibody as control
# [5] = biological target: HBV core protein (HBc) / capsid produced during HBV infection (hepatitis B virus) (UniProt P03146); test: proximity ligation; Duolink PLA with mouse anti-capsid (Hyb-3120) and rabbit anti-UBE2O; HBV-infected HepG2-NTCP cells at day 6 post-infection and HepAD38 cells (Tet+ / Tet-); fixed, permeabilised cells
# [6] = biological target: wild-type HBV core protein (wt-HBc), 1-185 aa, HBV genotype A, subtype adw2 (hepatitis B virus (genotype A, subtype adw2)) (UniProt P03148); test: co-IP; HepG2-NTCP cells co-transfected with Flag-Myc-UBE2O and wt-HBc or mutants; lysates 2 days post-transfection; IP anti-HBc or anti-Flag, Western blot anti-Flag or anti-HBc
# [7] = biological target: HBV core protein (HBc) / capsid produced during HBV infection (hepatitis B virus) (UniProt P03146); test: co-IP; HepG2-NTCP cells transfected with Flag-Myc-UBE2O, infected with HBV 2 days later; lysates 6 days post-infection; IP with anti-HBc or anti-capsid (Hyb-3120), Western blot anti-Flag and anti-HBc
molecule,measurement,setting,value
HBV core protein (HBc) / capsid produced during HBV infection (from UniProt P03146 1-183),binding,[1],binds
Flag-tagged HGS (from UniProt O14964 1-777),binding,[2],binds
Flag-Myc-tagged catalytically-defective UBE2O (C1040S) (from UniProt Q9C0C9 1-1292) (enzyme),binding,[3],no binding
B1,binding,[4],binds
same,binding,[5],binds
B2,binding,[6],binds
same,binding,[3],binds
same,binding,[7],binds
